Data published in the BET-seq Pho4 binding data (Le et al. 2018).
The list shows a part of the results. Values were computed here from the reads of four pooled replicates and scatter widely.

The sequences below were run against T1, Pho4 (S. cerevisiae) (UniProt P07270) (assay: relative binding free energy (BET-seq); higher = weaker binding). Settings: reference: library average.
T1 sequence: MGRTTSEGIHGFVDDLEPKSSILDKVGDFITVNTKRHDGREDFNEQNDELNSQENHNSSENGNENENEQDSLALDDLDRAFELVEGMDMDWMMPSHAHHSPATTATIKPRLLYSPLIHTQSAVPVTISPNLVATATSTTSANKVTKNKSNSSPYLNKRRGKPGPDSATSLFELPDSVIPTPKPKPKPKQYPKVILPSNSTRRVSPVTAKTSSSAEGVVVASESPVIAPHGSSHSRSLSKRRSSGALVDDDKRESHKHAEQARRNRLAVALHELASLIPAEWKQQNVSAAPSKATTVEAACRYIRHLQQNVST

Relative binding free energy, 0.07 kcal/mol:
GCGGGCACGTGTGGAA
TTTTGCACGTGTACGG
GGACGCACGTGTGGAG
TGCTGCACGTGTGGAG
TTCCACACGTGTTGGT
GTCGTCACGTGTTGGC
AATAACACGTGATTGT
TCAGTCACGTGTTTTT

Relative binding free energy, 0.12 kcal/mol:
TGGGTCACGTGGAGGA
AGAAACACGTGTGGCG
ATTGCCACGTGTATTA
GGTCGCACGTGTTTAT

Relative binding free energy, 0.31 kcal/mol:
GGTTTCACGTGGTCTG

Relative binding free energy, -0.21 kcal/mol:
GAAGACACGTGGGCGG
GTAAGCACGTGGGGGT

Relative binding free energy, 0.21 kcal/mol:
CGTTACACGTGTGAGG
GCGTTCACGTGGGATA
CGTTACACGTGAGTGA

Relative binding free energy, 0.35 kcal/mol:
GTTAGCACGTGAAGAG
AGATTCACGTGTAGAT

Relative binding free energy, -0.09 kcal/mol:
TAGAACACGTGGAGGG
ATAACCACGTGTGGGG
AATAGCACGTGGTCTG
TTTAGCACGTGGCTGC
GAGCGCACGTGGTGAT
AGATGCACGTGGTGGG
TTCGTCACGTGCGTGT

Relative binding free energy, 0.36 kcal/mol:
GAGTTCACGTGCTTGA
GTTATCACGTGGAAGG

Relative binding free energy, 0 kcal/mol:
AATGACACGTGTTGGA
TACTGCACGTGTGTTG
ATTTGCACGTGTAATA

Relative binding free energy, -0.04 kcal/mol:
TTAGGCACGTGGAGTT
GTAAGCACGTGTTGTA
GGCGTCACGTGTAGGG

Relative binding free energy, 0.38 kcal/mol:
AGTTTCACGTGGTAAC

Relative binding free energy, 0.15 kcal/mol:
CTTTGCACGTGTTTTT
AGGTACACGTGATTGA
TAGATCACGTGTATGT
TTTGTCACGTGTGGTC

Relative binding free energy, 0.09 kcal/mol:
CGGGACACGTGCGGTT
GAAGGCACGTGATGTT

Relative binding free energy, 0.22 kcal/mol:
GTGTTCACGTGTGAAG
GAGTTCACGTGGGCGG
TAGTTCACGTGCGGTA

Relative binding free energy, 0.23 kcal/mol:
ATGGTCACGTGTTGGC
TGTTGCACGTGAAGTG
ATGTTCACGTGTTGGA

Relative binding free energy, 0.16 kcal/mol:
GTGTTCACGTGTCTAA
GCGGGCACGTGGAATT
GGCATCACGTGGCGGG
ATAATCACGTGTGTGT
CGGGTCACGTGTGGTA
GTATTCACGTGCTAGG

Relative binding free energy, -0.03 kcal/mol:
GGTAGCACGTGTGCGG
GTAGACACGTGGACGG
GGAAGCACGTGGAATG
GTTGGCACGTGTAAGA
TGGTGCACGTGATCAT
TAAGGCACGTGTTGAG
TGGGGCACGTGTTGAA

Relative binding free energy, -0.24 kcal/mol:
CTTGGCACGTGGGCGA
GGGAGCACGTGGCAGG
TACGGCACGTGGGGGT
CGTGGCACGTGCGTGC

Relative binding free energy, 0.27 kcal/mol:
GGGTTCACGTGGTAAT
GGGTGCACGTGATTCG

Relative binding free energy, 0.06 kcal/mol:
ATTAGCACGTGACTGG
CTTTGCACGTGGAGGT
GATTGCACGTGTCAGT

Relative binding free energy, 0.19 kcal/mol:
CTCGTCACGTGTTATG
ATTGTCACGTGATTGT

Relative binding free energy, 0.08 kcal/mol:
TCAATCACGTGTTTGT
CGAGTCACGTGTGGGG
CGTAACACGTGTGGGA
TAGGTCACGTGCGGCT
AGGTACACGTGTTAGA

Relative binding free energy, 0.32 kcal/mol:
TCTTACACGTGAGGGT
TAATACACGTGAATGG
GATTGCACGTGAGTTG

Relative binding free energy, 0.13 kcal/mol:
GGGGACACGTGGTTAG
GTACGCACGTGAGGGA

Relative binding free energy, -0.08 kcal/mol:
AGTTGCACGTGGCGGC
AAGGACACGTGGGTAT
AAGAACACGTGGGGGT
TTGTGCACGTGCGAGT

Relative binding free energy, 0.14 kcal/mol:
GGATTCACGTGTGTTT
GATAACACGTGATGGT

Relative binding free energy, 0.43 kcal/mol:
GCGTTCACGTGGAGTG
GTCTTCACGTGGATTG

Relative binding free energy, -0.22 kcal/mol:
ATCAGCACGTGGGTAT

Relative binding free energy, -0.02 kcal/mol:
TCAGGCACGTGTGTTT
TTGAGCACGTGTGTAC
ACTGTCACGTGGTATT
CTGGGCACGTGTGAGT
GGGGGCACGTGGCGAT
GGTTCCACGTGGGGAT

Relative binding free energy, -0.05 kcal/mol:
AGTAGCACGTGGATAG
ATTAACACGTGTCTGT
ATGTGCACGTGCTGCT

Relative binding free energy, 0.24 kcal/mol:
AATATCACGTGAGTTT

Relative binding free energy, -0.3 kcal/mol:
TAAGGCACGTGGCCGG

Relative binding free energy, 0.25 kcal/mol:
TTGTTCACGTGTGCGG
GGGTGCACGTGAGCAT
TACATCACGTGATGTT

Relative binding free energy, 0.29 kcal/mol:
GTTTTCACGTGTGCTT
GTAGTCACGTGATTCT
GTCTTCACGTGGGTTT
AGGTACACGTGGAAAG
CGTCTCACGTGTTGTT

Relative binding free energy, -0.1 kcal/mol:
TAATCCACGTGGTTGT
TAAGACACGTGGGGGT
ATGAGCACGTGGTTAA
CTGGACACGTGGGGTA
TGCTGCACGTGCGTTG

Relative binding free energy, -0.31 kcal/mol:
TGACGCACGTGGGTCG

Relative binding free energy, 0.01 kcal/mol:
TGTATCACGTGGGTCG
TGTATCACGTGCTGTT

Relative binding free energy, -0.11 kcal/mol:
TTGGGCACGTGTTAGA
TCAGGCACGTGGTATT
CTGTGCACGTGTTGTA
ACAGGCACGTGTGGGG
CTTGACACGTGCTGTG

Relative binding free energy, -0.13 kcal/mol:
TTAGGCACGTGGATGA
TCTGGCACGTGTTGAT
TGGACCACGTGGGTGA
TTAGGCACGTGATCAT

Relative binding free energy, 0.33 kcal/mol:
GTAGGCACGTGAAAAT

Relative binding free energy, -0.18 kcal/mol:
GCTGGCACGTGGGTTA
TATGGCACGTGCATTA

Relative binding free energy, 0.5 kcal/mol:
GTTTTCACGTGAATAA

Relative binding free energy, 0.2 kcal/mol:
TGAGTCACGTGGAGTC
GGTGTCACGTGGACGG
TGTTTCACGTGGGACA

Relative binding free energy, 0.39 kcal/mol:
TGCGACACGTGAAAGG
AGATTCACGTGTAGTC

Relative binding free energy, 0.04 kcal/mol:
GGAAACACGTGTGAGG
GTTTGCACGTGGCAGC
ATACTCACGTGTATGG
TTTATCACGTGGTCGT
GGTTGCACGTGTGCTT
TTGTGCACGTGGATCG
CGAGTCACGTGGTGCA
TTAGTCACGTGGGTCA

Relative binding free energy, -0.12 kcal/mol:
TTGGGCACGTGTGCGT
GGTAACACGTGGGTGT
ACGGGCACGTGTAGGG
CGGGACACGTGGGCCG
GGATGCACGTGGGCCG

Relative binding free energy, 0.18 kcal/mol:
TTATGCACGTGGAAAT

Relative binding free energy, 0.34 kcal/mol:
GCGTTCACGTGTTAAG
TGTGTCACGTGAAATC

Relative binding free energy, -0.17 kcal/mol:
ATTGCCACGTGGGCTG
GTGGGCACGTGGGTAC
AACGGCACGTGGGAGA

Relative binding free energy, 0.03 kcal/mol:
AAGACCACGTGTGTGT
TGTGACACGTGAGTAG
CATTACACGTGGTAGT
CTGTGCACGTGTTATA

Relative binding free energy, 0.28 kcal/mol:
GGAGACACGTGAGGGA
TTTTTCACGTGCTTTC

Relative binding free energy, -0.19 kcal/mol:
ATGGGCACGTGGTTTC
TAGGGCACGTGGCAGG
TTAGACACGTGGGCTT
GTGAGCACGTGGGTGG
GCGGGCACGTGTCGGG

Relative binding free energy, -0.07 kcal/mol:
TCTGGCACGTGGTTCG
ATTCGCACGTGGTTGC
TTCAGCACGTGGATTG
GATGGCACGTGCTGGA
TTAGACACGTGCGTTT
TTAGGCACGTGTCAGG
GTGGGCACGTGGACGG
CGTGTCACGTGGGCTA
AGTTGCACGTGGACAG
ATAAGCACGTGGTGCG

Relative binding free energy, -0.16 kcal/mol:
ATCGACACGTGGGTGT
ATGAGCACGTGTGCTT

Relative binding free energy, -0.14 kcal/mol:
GGGTGCACGTGGTGCT
AGGAGCACGTGGTACG
TGTGTCACGTGGGCAT
GGTGGCACGTGGCTGC

Relative binding free energy, 0.45 kcal/mol:
TTCGTCACGTGAATTT
GATTTCACGTGTCTTG

Relative binding free energy, -0.01 kcal/mol:
GCAGTCACGTGGATGG
TTTCACACGTGCGGGT
TATTGCACGTGGTAAG
AGGCGCACGTGTTTGG
GTACACACGTGGGTTA
TACATCACGTGTTGTG

Relative binding free energy, 0.05 kcal/mol:
GACGTCACGTGGGGGA
TGTATCACGTGGGTAA

Relative binding free energy, -0.15 kcal/mol:
AGGCGCACGTGTGGCT
GGCGGCACGTGGCAGT
AAAGGCACGTGTAGGA
TATAGCACGTGCAGTG

Relative binding free energy, 0.17 kcal/mol:
TCTTGCACGTGATTGA
TGATCCACGTGTGGGG
ATGTACACGTGTGAGA
TTATTCACGTGTACAT
CAGTACACGTGTGGGC

Relative binding free energy, -0.43 kcal/mol:
GCACGCACGTGGGGTG

Relative binding free energy, 0.02 kcal/mol:
TGGTCCACGTGTGCGT
TATATCACGTGGGAGG
GAGGACACGTGTATGT
TTAGCCACGTGATGGT
TTAGGCACGTGAGTGC

Relative binding free energy, 0.1 kcal/mol:
GTAATCACGTGGTAGA
ACTTCCACGTGTTGGG
GTTGTCACGTGGCGCA
GGGTCCACGTGATATG
TGGTACACGTGCGGTG
GGGGGCACGTGTAAGT
TTTATCACGTGGGCGT

Relative binding free energy, 0.37 kcal/mol:
GGGTTCACGTGAAGAG
GATTTCACGTGTAGTA

Relative binding free energy, -0.23 kcal/mol:
GTTAGCACGTGCGCGT
GCGGGCACGTGGGGTC

Relative binding free energy, 0.11 kcal/mol:
TTTGACACGTGTGAAA
TGTTACACGTGCAGGG
ATGCTCACGTGGTGGT
CGATCCACGTGGTGTT
GGCGTCACGTGCATTG

Relative binding free energy, 0.3 kcal/mol:
GGAATCACGTGTGGTT

Relative binding free energy, -0.06 kcal/mol:
TTGTCCACGTGGGTGC
ATTCGCACGTGGCGTT
TGCGACACGTGCTGGG
TTATCCACGTGGGTGC

Relative binding free energy, 0.41 kcal/mol:
GAGTACACGTGTAATT
TTGATCACGTGAGTTC
